Reference: the supplement of paper PMC10126150
Values marked as one replicate rest on one cluster of the flow cell; about a third of the high ones do not repeat.

Test system: ATP
Test: switch fluorescence ratio, 500 uM ATP over buffer (Cy3 cluster intensity, sum of 5 cycles each) (fold (ratio)); higher = stronger signal-on switching upon ATP binding; sequences stand for … in TCGTCGGCAGCGTCAGATGTGTATAAGAGACAGTTTTTTTTTTTTTTTTTTTTTTTTT…TC
Conditions: aptamer strand: ATP DNA aptamer (quencher-CACCTGGGGGAGTATTGCGGAGGAAGG + anchor), 100 nM annealed; ATP concentration: 500 uM; one replicate
In short: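 Five buffer/ATP imaging cycles were run on Cy3-labelled switching-strand clusters on a modified Illumina MiSeq flow-cell, with NaOH stripping and re-annealing between cycles. In each cycle, clusters annealed to 100 nM quencher-labelled ATP aptamer were imaged in selection buffer, then after 15 min with 500 uM ATP at 22 °C. Per cluster, the fluorescence ratio is summed target-cycle over summed buffer-cycle Cy3 intensity, averaged per switch-domain sequence. Only clusters within 100-1000 RFU were kept.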
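Further: ATP exposure 15 min at 22 °C before imaging.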

Sequence	switch fluorescence ratio
CAGGGTGTTC	0.999
GAGTTTGTAG	0.953
ACTTAGCAAC	1.93
TACTTCTCGG	1.04
TTTCATATAT	0.983
TCGTACGTCA	1.04
GCTCTCCCC	2.41
GCTGTGAGG	1.04
ATGAGGGCAA	1.2
AGGGTCATCC	1
GGCCGCTGTG	1.03
GCGGGGCCTC	1.08
CCGTGTAATT	1.28
GGGGGGCC	0.986
TACCAGACGC	1.24
CGTTTTCCG	0.917
AATCGGACTG	0.943
ACAACTGTA	1.17
CTAACGAGGT	1.01
TGCACGGCTC	1.14
ACTTTCGTGC	1.01
CTTATGTGC	0.907
CGACTATTA	1.03

Sequence	switch fluorescence ratio
CTATCCGCTG	3.45
CCATTAACCG	1
AGACGCCTCG	1
CCATGAGGTT	0.986
CCGTGTAGCT	1.05
AGCACACATC	1.1
GGTGGCCCGT	0.989
GGCCGAATT	1.03
GCGAGTGAAT	1.01
AAAGTGGATG	0.98
TGCGGGGACA	1.02
TGAGGGGACT	0.99
GGCCGATCAG	0.993
TCAGAGATGG	0.985
TAAATTTAGT	0.993
ATCGTACGAT	0.947
CAATCACTT	0.967
TATTGATGG	0.988
TATCATAGTT	0.999
CTTGGCATGG	1.07
GTTATGGTGT	0.961
CTTGATGTCA	1.04
CGGACGGGGT	0.984

Sequence	switch fluorescence ratio
ACTCACTTGC	1.27
GGGCGCTCGG	0.974
GAAGGTCGGA	1.02
CGACTTGCGA	1.13
AGGTATCATG	0.95
GGGGGGGCG	0.96
GAGAATGTGG	1.03
TCGGGGACTT	0.979
TGATACCCAA	1.04
AGAGAGCCTT	0.993
ACAGCTTGGC	1.05
TGATCTTCA	1.02
GAAGATCATG	0.96
AACGGATATA	1.05
TAGCGTTCGG	0.987
TATAAGCGGG	0.949
ATCACAACTT	1.04
GCTGATTCGT	0.957
AGGAGTATGC	0.975
CGGTAAAAAT	1
TTTCTCTTCG	1.01
CCCAGGTGGG	4.61
TCGCGGGCCG	0.972

Sequence	switch fluorescence ratio
CAGGACAGCA	1.06
TGGTGTTATC	1.02
TTAACGTAAT	1.29
CACAATTTAG	0.988
TATCGGGAGA	0.987
CGTAAACGGT	0.977
GTATTGGAGG	0.979
GACGTTGAGT	0.982
GTTGAAATTG	1.01
TTTCGCACCC	1.25
CAGGAAGGTC	0.995
CATTTACGTG	1.03
ACTATGGGCG	1.09
CTACTTCTT	0.969
GGTGTCCCAT	0.97
TCGCGAAACT	1.03
TATGTTCGGC	1.03
AGAGCTTTCG	1
TCTGTAGAAT	1.15
ACAGGCACTA	1.05
GCCATTCGCC	1.03
TCTTATTCTA	1.01
CCTCATCAAG	2.7

Sequence	switch fluorescence ratio
TCGGGCGCTT	1.07
GGATATATCA	1.03
CCTGGATTAT	1.04
GACTTTACCG	0.95
GGTTGGTACC	0.991
TATGTCACC	1.13
TTTTCATTGC	0.996
GGGAAGCGCG	0.953
TAGCAGCTA	1.02
AGGCTGGATT	0.978
TAAGATCGCG	0.993
TTTTTCCCTA	0.996
TAGTGAAGGT	1
TACGTGCACT	1.03
GAGTGTTATC	1.03
AGCGAAAGTT	0.979
CCGTTCTAAT	1.07
GGCTATTTCA	1.01
GCGCCCATAT	1.13
ATGGCGGGT	0.994
GACCTTAGGA	1.01
ATAGGAGGAC	1
TCAGCGTCCG	0.945

Sequence	switch fluorescence ratio
TGGATTACG	1.01
CGGTGCAGAG	0.979
TTCGAACGGC	1.01
TGGTAGTGT	0.976
GACCTCTACG	1.14
ATAAGACGTC	0.948
GATGATTCCA	0.985
CTATGATGAC	0.998
GCGTGATTGA	1
ATTCCTGGG	0.998
TAGAAGGCTC	1.17
GTCCTTTTAA	1.01
GCGTTCGCCC	0.942
CAGTCTGAAC	1.03
GTGCTCACAA	1.01
TTGGTTGTCT	0.997
TAGTTTACC	1.02
ATAGCCGGCT	0.978
TCCTGTACAG	0.996
CTCATTTTAT	0.997
TAAGGGATTG	0.964
TCCTGCGGAG	1.12
ATATTGGAAA	0.95

Sequence	switch fluorescence ratio
AGGTTTCGTG	0.984
TGACCCTTGG	1.06
GGTCCATTCA	0.97
GTAGAAGTCG	1
TGTGGTACGC	0.986
CCGGTGGTGC	1.04
ACGGGACCCC	1.15
GAGTATATAG	1.01
CATAATGCAT	0.936
TAGCAGGCCA	1.03
GGGAGCGAGT	0.962
GTCCTGATAC	2.77
ACGCTAGTTC	1.05
CTGGACGGTT	0.981
ATTCTTACCT	1.19
AACTAGCTGA	1.03
TATGGAGAGT	0.976
ATGAATCGGG	1.02
GGCGATCATG	0.986
